Experimental data published in the supplement of paper PMC10126150.
Sequences with one replicate were seen in a single cluster, so their values are uncertain.

Test system: ATP
Test: switch fluorescence ratio, 500 uM ATP over buffer (Cy3 cluster intensity, sum of 5 cycles each) (fold (ratio)); higher = stronger signal-on switching upon ATP binding; sequences stand for … in TCGTCGGCAGCGTCAGATGTGTATAAGAGACAGTTTTTTTTTTTTTTTTTTTTTTTTT…TC
Details: aptamer strand: ATP DNA aptamer (quencher-CACCTGGGGGAGTATTGCGGAGGAAGG + anchor), 100 nM annealed; ATP concentration: 500 uM; one replicate
How it was run: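 Between each of five buffer/ATP cycles, the flow-cell was stripped with NaOH and re-annealed. Each cycle imaged Cy3-labelled switching-strand clusters, annealed to 100 nM quencher-labelled ATP aptamer on a modified Illumina MiSeq flow-cell, first in selection buffer and then after 15 min with 500 uM ATP at 22 °C. The fluorescence ratio is summed target-cycle over summed buffer-cycle Cy3 intensity per cluster, averaged per switch-domain sequence, with clusters outside 100-1000 RFU excluded.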
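Note: ATP exposure 15 min at 22 °C before imaging.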

Which switch fluorescence ratio does the source give for ATGCGGACG here?
The switch fluorescence ratio was 1.08.

How did the switch fluorescence ratio turn out when ATGCGGCCAG was run?
Its switch fluorescence ratio is 1.03.

ATGCGTCTGA was tested. Which switch fluorescence ratio did it give?
Its switch fluorescence ratio is 1.1.

How did the switch fluorescence ratio turn out when ATGCGTCTGG was run?
Its switch fluorescence ratio is 1.02.

ATGCTAATTC was tested. Which switch fluorescence ratio did it give?
Its switch fluorescence ratio is 1.

With ATGCTAGACG as the sequence, how does the switch fluorescence ratio read?
Its switch fluorescence ratio is 1.07.

ATGCTCGGGA was tested. Which switch fluorescence ratio did it give?
Its switch fluorescence ratio is 1.05.

ATGCTCTACG was tested. Which switch fluorescence ratio did it give?
Its switch fluorescence ratio is 0.972.

ATGCTGTCGG was tested. Which switch fluorescence ratio did it give?
Its switch fluorescence ratio is 0.994.

ATGCTTTAGG was tested. Which switch fluorescence ratio did it give?
The switch fluorescence ratio was 0.977.

ATGGAGAAAC was tested. Which switch fluorescence ratio did it give?
Its switch fluorescence ratio is 0.999.

For ATGGAGAGAT, which switch fluorescence ratio is on record?
The switch fluorescence ratio was 0.944.

How did the switch fluorescence ratio turn out when ATGGAGCGTC was run?
Its switch fluorescence ratio is 1.03.

With ATGGATTCTT as the sequence, how does the switch fluorescence ratio read?
The switch fluorescence ratio was 1.01.

Which switch fluorescence ratio does the source give for ATGGCAGTGG here?
The switch fluorescence ratio was 1.03.

Which switch fluorescence ratio does the source give for ATGGCATCTG here?
Its switch fluorescence ratio is 0.955.

For ATGGCCTGAT, which switch fluorescence ratio is on record?
Its switch fluorescence ratio is 1.03.

How did the switch fluorescence ratio turn out when ATGGCGCTCT was run?
The switch fluorescence ratio was 1.01.

Which switch fluorescence ratio does the source give for ATGGCGTCTG here?
The switch fluorescence ratio was 1.06.

For ATGGGAATGG, which switch fluorescence ratio is on record?
The switch fluorescence ratio was 0.993.

For ATGGGACCAT, which switch fluorescence ratio is on record?
The switch fluorescence ratio was 1.02.

For ATGGGAGCTA, which switch fluorescence ratio is on record?
The switch fluorescence ratio was 0.989.

How did the switch fluorescence ratio turn out when ATGGGAGTTG was run?
Its switch fluorescence ratio is 0.996.

Which switch fluorescence ratio does the source give for ATGGGCCAAT here?
The switch fluorescence ratio was 1.05.

How did the switch fluorescence ratio turn out when ATGGGCCGGC was run?
The switch fluorescence ratio was 1.09.

How did the switch fluorescence ratio turn out when ATGGGTAACC was run?
The switch fluorescence ratio was 0.986.

With ATGGGTATGG as the sequence, how does the switch fluorescence ratio read?
Its switch fluorescence ratio is 1.07.

For ATGGGTCTTG, which switch fluorescence ratio is on record?
The switch fluorescence ratio was 0.973.

For ATGGGTGATG, which switch fluorescence ratio is on record?
The switch fluorescence ratio was 0.993.

ATGGGTTAAT was tested. Which switch fluorescence ratio did it give?
The switch fluorescence ratio was 1.

For ATGGTACGGA, which switch fluorescence ratio is on record?
Its switch fluorescence ratio is 1.1.

ATGGTAGCTC was tested. Which switch fluorescence ratio did it give?
The switch fluorescence ratio was 1.01.

ATGGTAGGG was tested. Which switch fluorescence ratio did it give?
The switch fluorescence ratio was 1.01.

With ATGGTCGATA as the sequence, how does the switch fluorescence ratio read?
Its switch fluorescence ratio is 1.

Which switch fluorescence ratio does the source give for ATGGTGAGAT here?
The switch fluorescence ratio was 0.997.

With ATGGTGATTC as the sequence, how does the switch fluorescence ratio read?
Its switch fluorescence ratio is 1.03.

With ATGGTGCCTG as the sequence, how does the switch fluorescence ratio read?
The switch fluorescence ratio was 1.03.

For ATGGTGGGC, which switch fluorescence ratio is on record?
Its switch fluorescence ratio is 1.02.

With ATGGTGTCT as the sequence, how does the switch fluorescence ratio read?
The switch fluorescence ratio was 1.07.

With ATGGTTTCCC as the sequence, how does the switch fluorescence ratio read?
The switch fluorescence ratio was 1.02.

With ATGTAAAGAA as the sequence, how does the switch fluorescence ratio read?
The switch fluorescence ratio was 1.03.

With ATGTAACGGA as the sequence, how does the switch fluorescence ratio read?
Its switch fluorescence ratio is 0.994.

For ATGTAACGGT, which switch fluorescence ratio is on record?
The switch fluorescence ratio was 1.01.

ATGTAAGCTT was tested. Which switch fluorescence ratio did it give?
Its switch fluorescence ratio is 1.01.

For ATGTAAGTGG, which switch fluorescence ratio is on record?
Its switch fluorescence ratio is 0.952.

ATGTAATAGA was tested. Which switch fluorescence ratio did it give?
The switch fluorescence ratio was 0.977.

Which switch fluorescence ratio does the source give for ATGTACTGG here?
The switch fluorescence ratio was 1.12.

How did the switch fluorescence ratio turn out when ATGTAGAAAC was run?
Its switch fluorescence ratio is 1.09.

ATGTAGGCGA was tested. Which switch fluorescence ratio did it give?
Its switch fluorescence ratio is 1.01.

Which switch fluorescence ratio does the source give for ATGTAGGTT here?
The switch fluorescence ratio was 0.993.

How did the switch fluorescence ratio turn out when ATGTAGTGCT was run?
Its switch fluorescence ratio is 1.01.

Which switch fluorescence ratio does the source give for ATGTATAGAA here?
The switch fluorescence ratio was 0.955.

ATGTCAATGT was tested. Which switch fluorescence ratio did it give?
Its switch fluorescence ratio is 1.03.

With ATGTCAGCCG as the sequence, how does the switch fluorescence ratio read?
Its switch fluorescence ratio is 0.953.

ATGTCGCATT was tested. Which switch fluorescence ratio did it give?
The switch fluorescence ratio was 1.05.

Which switch fluorescence ratio does the source give for ATGTCGGGCG here?
Its switch fluorescence ratio is 0.975.

With ATGTCTCGCC as the sequence, how does the switch fluorescence ratio read?
The switch fluorescence ratio was 0.959.

ATGTCTGTGC was tested. Which switch fluorescence ratio did it give?
Its switch fluorescence ratio is 0.972.

Which switch fluorescence ratio does the source give for ATGTCTTATC here?
The switch fluorescence ratio was 1.02.

ATGTGACTAT was tested. Which switch fluorescence ratio did it give?
The switch fluorescence ratio was 0.998.

With ATGTGATTAT as the sequence, how does the switch fluorescence ratio read?
The switch fluorescence ratio was 1.02.

ATGTGCAATT was tested. Which switch fluorescence ratio did it give?
Its switch fluorescence ratio is 1.07.

For ATGTGCGGGA, which switch fluorescence ratio is on record?
The switch fluorescence ratio was 1.03.

ATGTGCGGGT was tested. Which switch fluorescence ratio did it give?
The switch fluorescence ratio was 0.969.

How did the switch fluorescence ratio turn out when ATGTGCTCAT was run?
The switch fluorescence ratio was 1.04.

With ATGTTAAAAT as the sequence, how does the switch fluorescence ratio read?
Its switch fluorescence ratio is 0.973.

With ATGTTAAATA as the sequence, how does the switch fluorescence ratio read?
Its switch fluorescence ratio is 0.969.

Which switch fluorescence ratio does the source give for ATGTTCAATA here?
The switch fluorescence ratio was 1.05.

Which switch fluorescence ratio does the source give for ATGTTCGACG here?
Its switch fluorescence ratio is 0.965.

ATGTTCGTTC was tested. Which switch fluorescence ratio did it give?
The switch fluorescence ratio was 1.02.

ATGTTGAAAG was tested. Which switch fluorescence ratio did it give?
The switch fluorescence ratio was 0.989.

For ATGTTTAGA, which switch fluorescence ratio is on record?
Its switch fluorescence ratio is 0.964.

How did the switch fluorescence ratio turn out when ATGTTTCCCG was run?
Its switch fluorescence ratio is 0.984.

ATGTTTGTGG was tested. Which switch fluorescence ratio did it give?
Its switch fluorescence ratio is 1.01.

Which switch fluorescence ratio does the source give for ATTAACGCGT here?
Its switch fluorescence ratio is 0.993.

ATTAACTAAT was tested. Which switch fluorescence ratio did it give?
The switch fluorescence ratio was 1.02.

For ATTAACTACG, which switch fluorescence ratio is on record?
Its switch fluorescence ratio is 1.08.

With ATTAACTTCC as the sequence, how does the switch fluorescence ratio read?
Its switch fluorescence ratio is 2.38.

How did the switch fluorescence ratio turn out when ATTAACTTT was run?
Its switch fluorescence ratio is 1.03.

Which switch fluorescence ratio does the source give for ATTAAGAGCT here?
The switch fluorescence ratio was 1.01.

ATTAAGGGTA was tested. Which switch fluorescence ratio did it give?
The switch fluorescence ratio was 1.01.

For ATTAAGGGTC, which switch fluorescence ratio is on record?
The switch fluorescence ratio was 0.891.

With ATTAATGAGG as the sequence, how does the switch fluorescence ratio read?
Its switch fluorescence ratio is 0.99.

How did the switch fluorescence ratio turn out when ATTAATTAGC was run?
The switch fluorescence ratio was 1.02.

ATTACAGTGG was tested. Which switch fluorescence ratio did it give?
The switch fluorescence ratio was 1.01.

For ATTACGGGAC, which switch fluorescence ratio is on record?
The switch fluorescence ratio was 1.32.

With ATTACGTTCG as the sequence, how does the switch fluorescence ratio read?
Its switch fluorescence ratio is 1.01.

How did the switch fluorescence ratio turn out when ATTACTTAGG was run?
The switch fluorescence ratio was 1.07.

With ATTACTTTCG as the sequence, how does the switch fluorescence ratio read?
Its switch fluorescence ratio is 0.987.

For ATTAGAACTT, which switch fluorescence ratio is on record?
The switch fluorescence ratio was 1.08.

Which switch fluorescence ratio does the source give for ATTAGCAGGT here?
The switch fluorescence ratio was 1.02.

For ATTAGCAGTA, which switch fluorescence ratio is on record?
The switch fluorescence ratio was 1.02.

For ATTAGCATAG, which switch fluorescence ratio is on record?
The switch fluorescence ratio was 0.999.

Which switch fluorescence ratio does the source give for ATTAGGTGGT here?
The switch fluorescence ratio was 1.02.

Which switch fluorescence ratio does the source give for ATTAGGTTTG here?
The switch fluorescence ratio was 0.974.

How did the switch fluorescence ratio turn out when ATTAGTAATG was run?
The switch fluorescence ratio was 1.05.

How did the switch fluorescence ratio turn out when ATTAGTATGG was run?
Its switch fluorescence ratio is 0.958.

Which switch fluorescence ratio does the source give for ATTAGTTGTT here?
The switch fluorescence ratio was 1.02.

Which switch fluorescence ratio does the source give for ATTATAATC here?
Its switch fluorescence ratio is 1.

With ATTATACGT as the sequence, how does the switch fluorescence ratio read?
Its switch fluorescence ratio is 1.02.
